{"source": "paper PMC9911399", "about": "“Two distinct binding modes provide the RNA-binding protein RbFox with extraordinary sequence specificity”", "binders": {"B1": {"name": "UCGGCAC (DNA:RNA)", "RNA": "GGGAGACCGGAAUUCAGAUUGUCCUCGGCACUUAAAUCCCGUCGUAGCCACCA", "DNA 1": "CAATCTGAATTCCGGTCTCCC", "DNA 2": "TGGTGGCTACGACGGGATT"}, "B2": {"name": "CCAGGAU (DNA:RNA)", "RNA": "B1 RNA with U25C, G27A, C29G, C31U", "DNA 1": "CAATCTGAATTCCGGTCTCCC", "DNA 2": "TGGTGGCTACGACGGGATT"}, "B3": {"name": "GCAGGAC (DNA:RNA)", "RNA": "B1 RNA with U25G, G27A, C29G", "DNA 1": "CAATCTGAATTCCGGTCTCCC", "DNA 2": "TGGTGGCTACGACGGGATT"}, "B4": {"name": "CAACGGU (DNA:RNA)", "RNA": "GGGAGACCGGAAUUCAGAUUGUCCCAACGGUUUAAAUCCCGUCGUAGCCACCA", "DNA 1": "CAATCTGAATTCCGGTCTCCC", "DNA 2": "TGGTGGCTACGACGGGATT"}, "B5": {"name": "GCCGGGU (DNA:RNA)", "RNA": "B4 RNA with C25G, A26C, A27C, C28G", "DNA 1": "CAATCTGAATTCCGGTCTCCC", "DNA 2": "TGGTGGCTACGACGGGATT"}, "B6": {"name": "GUGUGUC (DNA:RNA)", "RNA": "B1 RNA with U25G, C26U, G28U, C29G, A30U", "DNA 1": "CAATCTGAATTCCGGTCTCCC", "DNA 2": "TGGTGGCTACGACGGGATT"}, "B7": {"name": "CGAGCAC (DNA:RNA)", "RNA": "B1 RNA with U25C, C26G, G27A", "DNA 1": "CAATCTGAATTCCGGTCTCCC", "DNA 2": "TGGTGGCTACGACGGGATT"}, "B8": {"name": "CGUCGAG (DNA:RNA)", "RNA": "B4 RNA with A26G, A27U, G30A, U31G", "DNA 1": "CAATCTGAATTCCGGTCTCCC", "DNA 2": "TGGTGGCTACGACGGGATT"}, "B9": {"name": "CGACAUC (DNA:RNA)", "RNA": "B4 RNA with A26G, G29A, G30U, U31C", "DNA 1": "CAATCTGAATTCCGGTCTCCC", "DNA 2": "TGGTGGCTACGACGGGATT"}, "B10": {"name": "CCAUCAU (DNA:RNA)", "RNA": "B4 RNA with A26C, C28U, G29C, G30A", "DNA 1": "CAATCTGAATTCCGGTCTCCC", "DNA 2": "TGGTGGCTACGACGGGATT"}, "B11": {"name": "GUUGAAU (DNA:RNA)", "RNA": "B1 RNA with U25G, C26U, G27U, C29A, C31U", "DNA 1": "CAATCTGAATTCCGGTCTCCC", "DNA 2": "TGGTGGCTACGACGGGATT"}, "B12": {"name": "AACACGG (DNA:RNA)", "RNA": "B4 RNA with C25A, A27C, C28A, G29C, U31G", "DNA 1": "CAATCTGAATTCCGGTCTCCC", "DNA 2": "TGGTGGCTACGACGGGATT"}, "B13": {"name": "UUCAUGC (DNA:RNA)", "RNA": "B1 RNA with C26U, G27C, G28A, C29U, A30G", "DNA 1": "CAATCTGAATTCCGGTCTCCC", "DNA 2": "TGGTGGCTACGACGGGATT"}, "B14": {"name": "GACCCAC (DNA:RNA)", "RNA": "B1 RNA with U25G, C26A, G27C, G28C", "DNA 1": "CAATCTGAATTCCGGTCTCCC", "DNA 2": "TGGTGGCTACGACGGGATT"}, "B15": {"name": "AAGUAGG (DNA:RNA)", "RNA": "B4 RNA with C25A, A27G, C28U, G29A, U31G", "DNA 1": "CAATCTGAATTCCGGTCTCCC", "DNA 2": "TGGTGGCTACGACGGGATT"}, "B16": {"name": "CGAAAGA (DNA:RNA)", "RNA": "B4 RNA with A26G, C28A, G29A, U31A", "DNA 1": "CAATCTGAATTCCGGTCTCCC", "DNA 2": "TGGTGGCTACGACGGGATT"}, "B17": {"name": "UACCAUC (DNA:RNA)", "RNA": "B4 RNA with C25U, A27C, G29A, G30U, U31C", "DNA 1": "CAATCTGAATTCCGGTCTCCC", "DNA 2": "TGGTGGCTACGACGGGATT"}, "B18": {"name": "AGUUGGC (DNA:RNA)", "RNA": "B4 RNA with C25A, A26G, A27U, C28U, U31C", "DNA 1": "CAATCTGAATTCCGGTCTCCC", "DNA 2": "TGGTGGCTACGACGGGATT"}, "B19": {"name": "AUAAGAA (DNA:RNA)", "RNA": "B4 RNA with C25A, A26U, C28A, G30A, U31A", "DNA 1": "CAATCTGAATTCCGGTCTCCC", "DNA 2": "TGGTGGCTACGACGGGATT"}, "B20": {"name": "UUCCCUU (DNA:RNA)", "RNA": "B4 RNA with C25U, A26U, A27C, G29C, G30U", "DNA 1": "CAATCTGAATTCCGGTCTCCC", "DNA 2": "TGGTGGCTACGACGGGATT"}, "B21": {"name": "CUAGUAA (DNA:RNA)", "RNA": "B4 RNA with A26U, C28G, G29U, G30A, U31A", "DNA 1": "CAATCTGAATTCCGGTCTCCC", "DNA 2": "TGGTGGCTACGACGGGATT"}, "B22": {"name": "AUAACAG (DNA:RNA)", "RNA": "B1 RNA with U25A, C26U, G27A, G28A, C31G", "DNA 1": "CAATCTGAATTCCGGTCTCCC", "DNA 2": "TGGTGGCTACGACGGGATT"}, "B23": {"name": "CGGCUCU (DNA:RNA)", "RNA": "B4 RNA with A26G, A27G, G29U, G30C", "DNA 1": "CAATCTGAATTCCGGTCTCCC", "DNA 2": "TGGTGGCTACGACGGGATT"}, "B24": {"name": "GCAUACU (DNA:RNA)", "RNA": "B4 RNA with C25G, A26C, C28U, G29A, G30C", "DNA 1": "CAATCTGAATTCCGGTCTCCC", "DNA 2": "TGGTGGCTACGACGGGATT"}, "B25": {"name": "AGAGCGU (DNA:RNA)", "RNA": "B4 RNA with C25A, A26G, C28G, G29C", "DNA 1": "CAATCTGAATTCCGGTCTCCC", "DNA 2": "TGGTGGCTACGACGGGATT"}, "B26": {"name": "GGCAACA (DNA:RNA)", "RNA": "GGGAGACCGGAAUUCAGAUUGUCCGGCAACAUUAAAUCCCGUCGUAGCCACCA", "DNA 1": "CAATCTGAATTCCGGTCTCCC", "DNA 2": "TGGTGGCTACGACGGGATT"}, "B27": {"name": "UCCUUUC (DNA:RNA)", "RNA": "B1 RNA with G27C, G28U, C29U, A30U", "DNA 1": "CAATCTGAATTCCGGTCTCCC", "DNA 2": "TGGTGGCTACGACGGGATT"}, "B28": {"name": "CCUGACC (DNA:RNA)", "RNA": "B1 RNA with U25C, G27U, C29A, A30C", "DNA 1": "CAATCTGAATTCCGGTCTCCC", "DNA 2": "TGGTGGCTACGACGGGATT"}, "B29": {"name": "UGCUGCG (DNA:RNA)", "RNA": "B26 RNA with G25U, A28U, A29G, A31G", "DNA 1": "CAATCTGAATTCCGGTCTCCC", "DNA 2": "TGGTGGCTACGACGGGATT"}, "B30": {"name": "ACCAUAG (DNA:RNA)", "RNA": "B26 RNA with G25A, G26C, A29U, C30A, A31G", "DNA 1": "CAATCTGAATTCCGGTCTCCC", "DNA 2": "TGGTGGCTACGACGGGATT"}, "B31": {"name": "UUUUAAG (DNA:RNA)", "RNA": "B1 RNA with C26U, G27U, G28U, C29A, C31G", "DNA 1": "CAATCTGAATTCCGGTCTCCC", "DNA 2": "TGGTGGCTACGACGGGATT"}}, "note": "Substitutions are numbered along the chain they refer to; changes in the protein carry UniProt numbers. The list shows a part of the results.", "data": [{"target": "T1, RBFOX1 RRM (Homo sapiens, UniProt Q9NWB1 109-208)", "T1 sequence": "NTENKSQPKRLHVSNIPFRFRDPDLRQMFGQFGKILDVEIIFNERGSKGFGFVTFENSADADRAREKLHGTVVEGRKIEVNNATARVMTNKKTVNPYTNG", "assay": "EMSA; HiTS-Eq, 1 nM pool, 10 min; buffer printed only for the single-RNA assays: 10 mM Tris pH 7.5, 150 mM NaCl, 3.4 mM EDTA, 0.001% NP-40, 30 C", "settings": "tags: His6 N-terminal (pET28a); label: 5' 32P", "how_it_was_run": "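Purified RbFox RRM (wild type or mutant) was equilibrated for 10 min in 50 µL with 1 nM of a 5′-radiolabelled pool of RNA with 7 randomized nucleotides, its flanks annealed to DNA oligonucleotides, across increasing protein concentrations. Free RNA was separated by 8% native PAGE, excised, reverse-transcribed, PCR-barcoded and sequenced on an Illumina HiSeq 2500. Relative association constants came from read-count changes of each variant against the control reaction, normalised to the cognate motif.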", "values": [{"binder": "B1", "binding signal": "0.0124 KA relative to UGCAUGU"}, {"binder": "B2", "binding signal": "0.0104 KA relative to UGCAUGU"}, {"binder": "B3", "binding signal": "0.00817 KA relative to UGCAUGU"}, {"binder": "B4", "binding signal": "0.00523 KA relative to UGCAUGU"}, {"binder": "B5", "binding signal": "0.0167 KA relative to UGCAUGU"}, {"binder": "B6", "binding signal": "0.0183 KA relative to UGCAUGU"}, {"binder": "B7", "binding signal": "0.0163 KA relative to UGCAUGU"}, {"binder": "B8", "binding signal": "0.0124 KA relative to UGCAUGU"}, {"binder": "B9", "binding signal": "0.00501 KA relative to UGCAUGU"}, {"binder": "B10", "binding signal": "0.00229 KA relative to UGCAUGU"}, {"binder": "B11", "binding signal": "0.016 KA relative to UGCAUGU"}, {"binder": "B12", "binding signal": "0.00678 KA relative to UGCAUGU"}, {"binder": "B13", "binding signal": "0.0106 KA relative to UGCAUGU"}, {"binder": "B14", "binding signal": "0.00871 KA relative to UGCAUGU"}, {"binder": "B15", "binding signal": "0.0082 KA relative to UGCAUGU"}, {"binder": "B16", "binding signal": "0.0066 KA relative to UGCAUGU"}, {"binder": "B17", "binding signal": "0.000341 KA relative to UGCAUGU"}, {"binder": "B18", "binding signal": "0.0134 KA relative to UGCAUGU"}, {"binder": "B19", "binding signal": "0.0057 KA relative to UGCAUGU"}, {"binder": "B20", "binding signal": "0.00595 KA relative to UGCAUGU"}, {"binder": "B21", "binding signal": "0.0016 KA relative to UGCAUGU"}, {"binder": "B22", "binding signal": "0.00271 KA relative to UGCAUGU"}, {"binder": "B23", "binding signal": "0.0106 KA relative to UGCAUGU"}, {"binder": "B24", "binding signal": "0.00674 KA relative to UGCAUGU"}, {"binder": "B25", "binding signal": "0.0131 KA relative to UGCAUGU"}, {"binder": "B26", "binding signal": "0.00797 KA relative to UGCAUGU"}, {"binder": "B27", "binding signal": "0.00863 KA relative to UGCAUGU"}, {"binder": "B28", "binding signal": "0.00582 KA relative to UGCAUGU"}, {"binder": "B29", "binding signal": "0.0333 KA relative to UGCAUGU"}, {"binder": "B30", "binding signal": "0.00248 KA relative to UGCAUGU"}, {"binder": "B31", "binding signal": "0.0134 KA relative to UGCAUGU"}]}]}
